# The list shows a part of the results.
# B1: LecB PA14 (Pseudomonas aeruginosa) (protein)
# chain: MATQGVFTLPANTQFGVTAFANSAGTQTVNVQVNNETVATFTGQSTNNAIIGSKVLNSGGGGKVQILVSVNGRSSDLVSAQVILANELNFALVGSEDSTDNDYNDAVVVINWPLG
# Legend:
# Experiment in all cases: glycan array binding signal (z-score within array); higher = stronger binding
# Conditions in all cases: glycan notation: IUPAC condensed, linker removed
# [1] = molecular target: GlcNAc(b1-4)GlcNAc(b1-4)GlcNAc(b1-4)GlcNAc(b1-4)GlcNAc(b1-4)GlcNAc
# In short: (§1)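 Glycan array data were curated from 3228 arrays in the Consortium for Functional Glycomics database and kept only where the protein sequence was available. Glycan names were converted to IUPAC-condensed notation, and columns mapping to the same glycan were averaged. The binding signal is a within-array Z-score, averaged across arrays of the same protein sequence at different concentrations or buffers and across linkers. Negative Z-scores can be read as non-binding.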
# [2] = molecular target: GlcNAc(b1-4)[GlcNAc(b1-6)]GalNAc
# In short: as §1
# [3] = molecular target: GlcNAc(b1-6)Gal(b1-4)GlcNAc
# In short: as §1
# GlcNAc(b1-6)GalNAc = molecular target: GlcNAc(b1-6)GalNAc
# In short: as §1
# [4] = molecular target: GlcNAc6S(b1-3)Gal(b1-4)GlcNAc
# In short: as §1
# Kdn(a2-3)Gal(b1-3)GalNAc = molecular target: Kdn(a2-3)Gal(b1-3)GalNAc
# In short: as §1
# Kdn(a2-3)Gal(b1-3)GlcNAc = molecular target: Kdn(a2-3)Gal(b1-3)GlcNAc
# In short: as §1
# Kdn(a2-3)Gal(b1-4)Glc = molecular target: Kdn(a2-3)Gal(b1-4)Glc
# In short: as §1
# Kdn(a2-3)Gal(b1-4)GlcNAc = molecular target: Kdn(a2-3)Gal(b1-4)GlcNAc
# In short: as §1
# [5] = molecular target: Kdn(a2-3)Gal(b1-4)[Fuc(a1-3)]GlcNAc
# In short: as §1
# Kdn(a2-6)Gal(b1-4)GlcNAc = molecular target: Kdn(a2-6)Gal(b1-4)GlcNAc
# In short: as §1
# [6] = molecular target: Man(a1-2)Man(a1-2)Man(a1-3)Man
# In short: as §1
# [7] = molecular target: Man(a1-2)Man(a1-2)Man(a1-6)[Man(a1-3)]Man
# In short: as §1
# Man(a1-2)Man(a1-3)Man = molecular target: Man(a1-2)Man(a1-3)Man
# In short: as §1
# [8] = molecular target: Man(a1-2)Man(a1-3)[Man(a1-2)Man(a1-6)]Man
# In short: as §1
# [9] = molecular target: Man(a1-2)Man(a1-3)[Man(a1-2)Man(a1-6)]Man(a1-6)[Man(a1-2)Man(a1-2)Man(a1-3)]Man
# In short: as §1
# [10] = molecular target: Man(a1-2)Man(a1-3)[Man(a1-2)Man(a1-6)]Man(a1-6)[Man(a1-2)Man(a1-2)Man(a1-3)]Man(b1-4)GlcNAc(b1-4)GlcNAc
# In short: as §1
# [11] = molecular target: Man(a1-2)Man(a1-3)[Man(a1-6)]Man(a1-6)[Man(a1-2)Man(a1-3)]Man(b1-4)GlcNAc(b1-4)GlcNAc
# In short: as §1
# [12] = molecular target: Man(a1-2)Man(a1-6)[Man(a1-3)]Man(a1-6)[Man(a1-2)Man(a1-2)Man(a1-3)]Man
# In short: as §1
# [13] = molecular target: Man(a1-2)Man(a1-6)[Man(a1-3)]Man(a1-6)[Man(a1-2)Man(a1-2)Man(a1-3)]Man(b1-4)GlcNAc(b1-4)GlcNAc
# In short: as §1
# Man(a1-3)[Man(a1-6)]Man = molecular target: Man(a1-3)[Man(a1-6)]Man
# In short: as §1
# [14] = molecular target: Man(a1-3)[Man(a1-6)]Man(a1-6)[Man(a1-2)Man(a1-3)]Man(b1-4)GlcNAc(b1-4)GlcNAc
# In short: as §1
# [15] = molecular target: Man(a1-3)[Man(a1-6)]Man(a1-6)[Man(a1-3)]Man
# In short: as §1
# [16] = molecular target: Man(a1-3)[Man(a1-6)]Man(a1-6)[Man(a1-3)]Man(b1-4)GlcNAc(b1-4)GlcNAc
# In short: as §1
# [17] = molecular target: Man(a1-3)[Man(a1-6)]Man(b1-4)GlcNAc(b1-4)GlcNAc
# In short: as §1
# [18] = molecular target: Man(a1-3)[Man(a1-6)]Man(b1-4)GlcNAc(b1-4)[Fuc(a1-6)]GlcNAc
# In short: as §1
# Man(a1-6)Man = molecular target: Man(a1-6)Man
# In short: as §1
# Man(b1-4)GlcNAc = molecular target: Man(b1-4)GlcNAc
# In short: as §1
# MurNAc(b1-4)GlcNAc = molecular target: MurNAc(b1-4)GlcNAc
# In short: as §1
# Neu5Ac(a2-3)Gal = molecular target: Neu5Ac(a2-3)Gal
# In short: as §1
# [19] = molecular target: Neu5Ac(a2-3)Gal(b1-3)GalNAc
# In short: as §1
# [20] = molecular target: Neu5Ac(a2-3)Gal(b1-3)GalNAc(b1-3)Gal(a1-4)Gal(b1-4)Glc
# In short: as §1
# [21] = molecular target: Neu5Ac(a2-3)Gal(b1-3)GalNAc(b1-4)Gal(b1-4)Glc
# In short: as §1
# [22] = molecular target: Neu5Ac(a2-3)Gal(b1-3)GalNAc(b1-4)[Neu5Ac(a2-3)]Gal(b1-4)Glc
# In short: as §1
# [23] = molecular target: Neu5Ac(a2-3)Gal(b1-3)GalNAc(b1-4)[Neu5Ac(a2-8)Neu5Ac(a2-3)]Gal(b1-4)Glc
# In short: as §1
# [24] = molecular target: Neu5Ac(a2-3)Gal(b1-3)GalNAc6S
# In short: as §1
# [25] = molecular target: Neu5Ac(a2-3)Gal(b1-3)GlcNAc
# In short: as §1
# [26] = molecular target: Neu5Ac(a2-3)Gal(b1-3)GlcNAc(b1-2)Man
# In short: as §1
# [27] = molecular target: Neu5Ac(a2-3)Gal(b1-3)GlcNAc(b1-2)Man(a1-3)[GlcNAc(b1-4)][Neu5Ac(a2-3)Gal(b1-3)GlcNAc(b1-2)Man(a1-6)]Man(b1-4)GlcNAc(b1-4)GlcNAc
# In short: as §1
# [28] = molecular target: Neu5Ac(a2-3)Gal(b1-3)GlcNAc(b1-2)Man(a1-3)[Neu5Ac(a2-3)Gal(b1-3)GlcNAc(b1-2)Man(a1-6)]Man(b1-4)GlcNAc(b1-4)GlcNAc
# In short: as §1
# [29] = molecular target: Neu5Ac(a2-3)Gal(b1-3)GlcNAc(b1-2)[Neu5Ac(a2-3)Gal(b1-3)GlcNAc(b1-4)]Man(a1-6)[Neu5Ac(a2-3)Gal(b1-3)GlcNAc(b1-2)Man(a1-3)]Man(b1-4)GlcNAc(b1-4)GlcNAc
# In short: as §1
# [30] = molecular target: Neu5Ac(a2-3)Gal(b1-3)GlcNAc(b1-3)Gal(b1-3)GlcNAc
# In short: as §1
# [31] = molecular target: Neu5Ac(a2-3)Gal(b1-3)GlcNAc(b1-3)Gal(b1-4)GlcNAc
# In short: as §1
# [32] = molecular target: Neu5Ac(a2-3)Gal(b1-3)GlcNAc(b1-3)GalNAc
# In short: as §1
# [33] = molecular target: Neu5Ac(a2-3)Gal(b1-3)GlcNAc(b1-6)GalNAc
# In short: as §1
binder,measurement,setting,value
B1,glycan array binding signal (z-score),[1],-0.39
same,glycan array binding signal (z-score),[2],-0.69
same,glycan array binding signal (z-score),[3],-0.186
same,glycan array binding signal (z-score),GlcNAc(b1-6)GalNAc,-0.212
same,glycan array binding signal (z-score),[4],-0.543
same,glycan array binding signal (z-score),Kdn(a2-3)Gal(b1-3)GalNAc,1.52
same,glycan array binding signal (z-score),Kdn(a2-3)Gal(b1-3)GlcNAc,0.509
same,glycan array binding signal (z-score),Kdn(a2-3)Gal(b1-4)Glc,-0.194
same,glycan array binding signal (z-score),Kdn(a2-3)Gal(b1-4)GlcNAc,-0.618
same,glycan array binding signal (z-score),[5],0.594
same,glycan array binding signal (z-score),Kdn(a2-6)Gal(b1-4)GlcNAc,-0.512
same,glycan array binding signal (z-score),[6],1.26
same,glycan array binding signal (z-score),[7],2.31
same,glycan array binding signal (z-score),Man(a1-2)Man(a1-3)Man,0.523
same,glycan array binding signal (z-score),[8],-0.117
same,glycan array binding signal (z-score),[9],5.22
same,glycan array binding signal (z-score),[10],-0.658
same,glycan array binding signal (z-score),[11],0.847
same,glycan array binding signal (z-score),[12],-0.022
same,glycan array binding signal (z-score),[13],1.92
same,glycan array binding signal (z-score),Man(a1-3)[Man(a1-6)]Man,1.73
same,glycan array binding signal (z-score),[14],0.46
same,glycan array binding signal (z-score),[15],-0.57
same,glycan array binding signal (z-score),[16],1.82
same,glycan array binding signal (z-score),[17],-0.309
same,glycan array binding signal (z-score),[18],0.507
same,glycan array binding signal (z-score),Man(a1-6)Man,-0.545
same,glycan array binding signal (z-score),Man(b1-4)GlcNAc,-0.354
same,glycan array binding signal (z-score),MurNAc(b1-4)GlcNAc,-0.313
same,glycan array binding signal (z-score),Neu5Ac(a2-3)Gal,-1.05
same,glycan array binding signal (z-score),[19],-0.314
same,glycan array binding signal (z-score),[20],-0.704
same,glycan array binding signal (z-score),[21],-0.506
same,glycan array binding signal (z-score),[22],-0.117
same,glycan array binding signal (z-score),[23],-0.048
same,glycan array binding signal (z-score),[24],-0.688
same,glycan array binding signal (z-score),[25],-0.082
same,glycan array binding signal (z-score),[26],0.059
same,glycan array binding signal (z-score),[27],0.268
same,glycan array binding signal (z-score),[28],-0.761
same,glycan array binding signal (z-score),[29],-0.042
same,glycan array binding signal (z-score),[30],-0.29
same,glycan array binding signal (z-score),[31],-0.04
same,glycan array binding signal (z-score),[32],-0.584
same,glycan array binding signal (z-score),[33],-0.484
